Experimental findings from article PMC4336329 (PLoS ONE, 2015) are described below.

Each structure is given as a SMILES string. Hit rate of the full screen: of about 310,000 compounds, about 14,000 (4.5%) showed an effect of 50% or more. Effects have a minus sign here. The list shows a part of the results.
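Further: peak tail current of the secondary pulse compared with the same well before compound.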

In the assay the target is human ether-à-go-go-related gene (hERG) potassium channel (human, UniProt Q12809). Kind of assay: primary screen, population patch clamp on CHO cells stably expressing hERG.
Sequence of human ether-à-go-go-related gene (hERG) potassium channel (Q12809 whole entry, looked up): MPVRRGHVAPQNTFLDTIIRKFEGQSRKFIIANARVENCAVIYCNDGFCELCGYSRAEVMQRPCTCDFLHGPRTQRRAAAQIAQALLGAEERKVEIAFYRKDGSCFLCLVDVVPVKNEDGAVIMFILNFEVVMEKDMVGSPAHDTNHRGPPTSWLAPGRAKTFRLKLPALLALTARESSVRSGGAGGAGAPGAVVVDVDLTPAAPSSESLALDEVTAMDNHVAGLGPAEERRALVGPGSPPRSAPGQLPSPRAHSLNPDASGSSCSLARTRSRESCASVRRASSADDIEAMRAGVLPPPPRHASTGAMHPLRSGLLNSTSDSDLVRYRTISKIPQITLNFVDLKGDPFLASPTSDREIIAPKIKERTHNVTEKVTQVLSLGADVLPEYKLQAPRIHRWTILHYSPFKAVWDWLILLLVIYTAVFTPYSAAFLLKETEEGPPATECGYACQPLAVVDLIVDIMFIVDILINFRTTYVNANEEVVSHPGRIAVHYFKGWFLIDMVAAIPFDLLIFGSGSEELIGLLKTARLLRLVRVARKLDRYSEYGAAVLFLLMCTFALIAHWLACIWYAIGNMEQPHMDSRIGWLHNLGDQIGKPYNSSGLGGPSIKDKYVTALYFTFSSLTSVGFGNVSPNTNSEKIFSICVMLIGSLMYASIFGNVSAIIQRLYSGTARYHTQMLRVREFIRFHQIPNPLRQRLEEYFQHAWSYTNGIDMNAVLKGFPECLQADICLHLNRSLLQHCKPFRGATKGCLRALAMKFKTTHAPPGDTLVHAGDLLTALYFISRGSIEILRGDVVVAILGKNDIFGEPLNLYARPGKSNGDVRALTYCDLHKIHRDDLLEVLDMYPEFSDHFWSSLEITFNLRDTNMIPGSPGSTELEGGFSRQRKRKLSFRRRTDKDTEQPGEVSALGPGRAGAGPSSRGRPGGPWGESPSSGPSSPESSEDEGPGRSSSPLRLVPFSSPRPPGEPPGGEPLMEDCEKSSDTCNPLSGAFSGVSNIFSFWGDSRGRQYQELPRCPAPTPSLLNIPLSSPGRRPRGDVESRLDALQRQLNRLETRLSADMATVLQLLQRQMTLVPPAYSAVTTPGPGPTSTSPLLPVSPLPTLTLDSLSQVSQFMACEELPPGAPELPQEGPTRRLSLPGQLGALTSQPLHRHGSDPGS
Regarding `CC(=O)NC1CC2CCCC(C1)N2C(=O)Nc1ccccc1` (centres unmarked), the “hERG current change (%, negative = inhibition) at 10uM” value is recorded as 9.57%. The figure for `CCN=C1NN=C(c2c[nH]c3ccccc23)CS1` is -6.81%. The figure for `CC(=O)Nc1ccccc1OCC(=O)c1ccc2c(c1)OCO2` is -6.76%. The figure for `O=C(O)C(=O)O.OC(CNC1CCCc2ccccc21)COc1ccc2ccccc2c1` (centres unmarked) is -72.3%; for `CCOC(=O)c1nc(NCc2ccccc2)sc1C` it is 10.1%. Regarding `CN(C)C(=O)c1ccc(NC(=O)COC(=O)/C=C/c2cccs2)cc1`, the “hERG current change (%, negative = inhibition) at 10uM” value is 10.3%. `Cc1cc(N2CCN(C)CC2)nc2ccc(NC(=O)CCC(=O)NCc3ccco3)cc12`: the “hERG current change (%, negative = inhibition) at 10uM” value was 7.05%. The figure for `Cc1nc2ccccc2c(=O)n1NC(=O)/C=C/c1ccc(Br)cc1` is -1.3%. The figure for `COc1ccc(NC(=O)c2cc3c([nH]c4ccccc43)c(C)n2)cc1` is 19.3%; for `Cc1nn(C)c(C)c1CNC(=O)c1cnn2c1NC(c1ccccc1)CC2C(F)(F)F` (centres unmarked) it is -8.44%. In the case of `CC(C)(C)OC(=O)N[C@@H](Cc1ccccc1)C(=O)NCC1CCC(C(=O)N[C@@H](CCC(N)=O)C(=O)O)CC1` (some centres unmarked), the “hERG current change (%, negative = inhibition) at 10uM” value is on record as 16.6%. With `COc1cc(S(=O)(=O)N2CCOCC2)ccc1NC(=O)COC(=O)c1ccccn1`, the “hERG current change (%, negative = inhibition) at 10uM” value is listed as -3.21%. The figure for `CCCOc1ccc(-c2nnn(CC(=O)OCC)n2)cc1` is 3.17%. As for `COc1cccc(/C=N\NC(=O)c2ccc(Cn3cc(Br)c([N+](=O)[O-])n3)o2)c1O`, the “hERG current change (%, negative = inhibition) at 10uM” value was 6.21%. The figure for `Cc1c(Cl)c([N+](=O)[O-])nn1Cc1ccc(C(=O)N/N=C\c2ccccn2)o1` is -39.5%; for `Cc1ccc(CCNC(=O)C23C[C@H]4C[C@@H](C2)CC(n2nnc(C)n2)(C4)C3)cc1` it is -6.79%; for `COc1ccc(S(=O)(=O)N(CC(=O)Nc2ccc(S(=O)(=O)N3CCOCC3)cc2)Cc2ccc(F)cc2)cc1` it is 9.02%. The figure for `COc1ccc(OCCCC(=O)OC(C)C(=O)Nc2cccc(C(C)=O)c2)cc1` (centres unmarked) is -14.3%; for `CC(C)Oc1ccc(CNC(=O)Oc2ccccc2)cc1` it is 8.19%; for `O=C(COc1cc2oc(=O)c3c(c2cc1Cl)CCC3)NCc1ccccn1` it is 7.07%. Take `N#Cc1cccc(NC(=O)COC(=O)CCc2ccc(S(=O)(=O)N3CCOCC3)cc2)c1`: the “hERG current change (%, negative = inhibition) at 10uM” value was -60.1%.

As to `CNC(=S)NNc1nncc2ccccc12`, the “hERG current change (%, negative = inhibition) at 10uM” value is given as 10.7%.

With `COCCn1cnc2c1c(=O)n(CC(=O)OCC#N)c(=O)n2Cc1ccccc1`, the “hERG current change (%, negative = inhibition) at 10uM” value is 5.42%. The figure for `CCCNC(=O)COC(=O)c1ccccc1OCc1ccc(Cl)cc1` is -0.354%. For the molecule `Cc1ccc(NS(=O)(=O)c2cccc(C(=O)N3CCN(C(=O)c4ccco4)CC3)c2)cc1`, the “hERG current change (%, negative = inhibition) at 10uM” value is on record as -36.8%. The figure for `O=C(C1=NN(c2ccccc2)C2C(=O)N(c3ccccc3)C(=O)C12)c1ccccc1` (centres unmarked) is -7.76%; for `CCOc1ccc(N(C(=O)c2snc(C(N)=O)c2N)C(C)C(=O)NC2CCCCC2)cc1` (centres unmarked) it is -26%; for `COc1ccc(OC)c(N2C(=O)C(Cl)=C(N3CCOCC3)C2=O)c1` it is -1.47%. The figure for `Cc1nnc(NC(=O)CCC(=O)N2CCC(C)CC2)s1` is 15.8%. The figure for `COc1ccc2nc(SCC(=O)NCCc3ccccc3)[nH]c2c1` is -21.6%.

As for `COc1cccc(-n2nc(-c3ccnn3-c3ccc(C)cc3)c(=O)n(C)c2=O)c1`, the “hERG current change (%, negative = inhibition) at 10uM” value is -2.93%. For the molecule `CCSc1nnc(NC(=O)[C@@H](NC(=O)c2ccc(C(C)(C)C)cc2)C(C)C)s1`, the “hERG current change (%, negative = inhibition) at 10uM” value was found to be 2.01%. In the case of `O=C(CN1CCOc2ccccc21)NCc1ccccc1`, the “hERG current change (%, negative = inhibition) at 10uM” value stood at 0.805%. For the molecule `O=C1CC(c2ccccc2)Sc2nc3ccccc3n21` (centres unmarked), the “hERG current change (%, negative = inhibition) at 10uM” value was found to be 8.11%.

Turning to `COc1ccc(C(C)=O)cc1COC(=O)CCNS(=O)(=O)c1ccc(C)c(C)c1`, the “hERG current change (%, negative = inhibition) at 10uM” value was -38.3%.

With `COc1cccc(CNC(=O)CCNS(=O)(=O)c2ccc3c(c2)CC(C)N3C(C)=O)c1` (centres unmarked), the “hERG current change (%, negative = inhibition) at 10uM” value turned out to be 13.8%. The figure for `Cc1cccc(CSc2nc3c(c(-c4cccs4)c2C#N)CN(C)CC3)c1` is -13.1%; for `Oc1ccc(C2C[C@H]3CC[C@@H]2C3)cc1O` (some centres unmarked) it is 4.19%; for `CC(=O)N1C[C@H](O)C[C@H]1C(=O)O` it is -31.6%. The figure for `Cc1ccsc1C(=O)C1CCCN(Cc2cnn(C(C)C)c2)C1` (centres unmarked) is -56.4%; for `O=c1c2ccccc2nc(-c2ccco2)n1-c1ccccc1` it is -5.2%; for `CC1CCN(c2c(NCc3ccc(C(=O)NCc4ccccc4)cc3)c(=O)c2=O)CC1` it is 24%. The figure for `COc1ccc(-n2cc(-c3ccc(OC(F)F)cc3)[n+]3c2CCCCC3)cc1.[Br-]` is -76.3%; for `COc1cc(/C=C(\C#N)C(=O)N2CCCCC2)ccc1O` it is 3.57%; for `COc1ccc(CC(=O)NNC(=O)COc2ccc(Br)cc2C)cc1OC` it is -8.07%.

As for `CC1(c2ccccc2)NC(=O)N(CC(=O)Nc2ccccc2N2CCCCC2)C1=O` (centres unmarked), the “hERG current change (%, negative = inhibition) at 10uM” value is on record as -13.6%.

Consider `COc1ccc(Nc2nc(NCC3CCCO3)c3ccccc3n2)c(OC)c1.Cl` (centres unmarked), for which the “hERG current change (%, negative = inhibition) at 10uM” value was -71.7%.

As to `O=S(=O)(c1ccc(S(=O)(=O)N(Cc2ccccc2)Cc2ccco2)cc1)N1CCCC1`, the “hERG current change (%, negative = inhibition) at 10uM” value is on record as -6.27%. The figure for `Cc1cc(C)nc(N/N=C/c2ccc(N3CCOCC3)cc2)n1` is -8.51%. The figure for `Cc1nn(C(=O)c2c([N+](=O)[O-])cnn2C)c(C)c1Cl` is 16.9%; for `Nc1cccc(C(=O)N/N=C/c2ccsc2)c1` it is 1.65%; for `C=CCn1c(SCC(=O)NCc2ccco2)nnc1-c1ccc2ccccc2n1` it is -28.2%.

For `Cc1ccc(CCP(=O)(O)CN2CCOCC2)cn1`, the “hERG current change (%, negative = inhibition) at 10uM” value is reported as 4.84%. Regarding `O=C(CN(CC1CCCO1)C(=O)Cn1nnc(-c2ccc(F)cc2)n1)NC1CCCCC1` (centres unmarked), the “hERG current change (%, negative = inhibition) at 10uM” value is given as -21.6%. The figure for `Cc1cc(C)n2c(-c3ccccc3Cl)nnc2n1` is -14.8%; for `COc1ccc2[nH]c(=O)c(CN(CCc3ccccc3)Cc3nnnn3CC3CCCO3)cc2c1` (centres unmarked) it is -53.4%; for `O=C(c1ccccn1)N1N=C2/C(=C/c3ccccc3)CCCC2C1c1ccccc1` (centres unmarked) it is -37.1%. On to `CCc1nnc(NS(=O)(=O)c2ccc(NC(=O)c3cccc([N+](=O)[O-])c3)cc2)s1`, for which the “hERG current change (%, negative = inhibition) at 10uM” value is 30.5%. Take `CCN(c1ccccc1)S(=O)(=O)c1cccc(C(=O)NCC(c2cccs2)N2CCOCC2)c1` (centres unmarked): the “hERG current change (%, negative = inhibition) at 10uM” value is -18.7%.

Turning to `CCC(=O)c1ccc(OCC(=O)OCC(=O)c2cc(C)n(C)c2C)cc1`, the “hERG current change (%, negative = inhibition) at 10uM” value came out at 28.5%. The figure for `CC(/C=C/c1ccc(N(C)C)cc1)=N\N=C1\NC(=O)CC(C(=O)Nc2ccccc2)S1` (centres unmarked) is 0.489%. Take `O=C(CSc1ncnc2c1cnn2-c1ccccc1)NC1CCCC1`: the “hERG current change (%, negative = inhibition) at 10uM” value was -11.6%. Consider `O=C(c1ccc2c(c1)OCO2)N(c1ccc(F)cc1)C1C=CS(=O)(=O)C1` (centres unmarked), for which the “hERG current change (%, negative = inhibition) at 10uM” value is listed as -1.14%. The figure for `COC(=O)C(=O)/C=C(\O)c1ccc(C)cc1` is -2.4%; for `Cc1cc(C(=O)NNc2ccc(Cl)cc2)no1` it is 7.88%; for `CCn1cc(CN2CCC(n3nccc3NC(=O)C(OC)c3ccccc3)CC2)cn1` (centres unmarked) it is 12.4%. The figure for `CC(C)(C)CN1CCN(Cc2c[nH]c3ccccc23)CC1CCO` (centres unmarked) is 15.5%; for `COC(=O)c1ccc(CSc2nnc3n(Cc4ccccc4OC)c(=O)c4ccccc4n23)o1` it is -19.3%.

For the molecule `Cc1ccc(C(=O)NNS(=O)(=O)c2ccccc2[N+](=O)[O-])cc1`, the “hERG current change (%, negative = inhibition) at 10uM” value turned out to be 2.03%.

For the molecule `COCCNC(=O)c1ccccc1NC(=O)c1cc(OC)cc(OC)c1`, the “hERG current change (%, negative = inhibition) at 10uM” value was -4.44%. The figure for `Cc1ccc(S(=O)(=O)NCC(=O)N(CC(=O)NCC2CCCO2)CC2CCCO2)cc1` (centres unmarked) is 12.4%; for `CCOc1ccc(Cc2nnc(SCC(=O)Nc3ccccc3)n(N)c2=O)cc1` it is -25%. In the case of `Cc1ccc(S(=O)(=O)N2CCN(Cc3ccccc3)CC2)cc1`, the “hERG current change (%, negative = inhibition) at 10uM” value is listed as -9.58%. The figure for `CCCCN(CC)CCCNC(=O)C1CCN(c2ncnc3c2sc2cccc(F)c23)CC1` is -70.3%; for `C=CCc1cccc(/C=N/NC(=O)CCC(=O)Nc2ccc(F)cc2)c1O` it is 9.26%; for `C=CCc1ccccc1OCCCCN1CCCC1` it is -21.9%. The figure for `CC1CCN(CC#CCOc2ccc(Cl)cc2)CC1.O=C(O)C(=O)O` is -5.81%; for `Cc1ccc(/C=N/NC(=O)CCCOc2ccc(Cl)cc2Cl)cc1[N+](=O)[O-]` it is 1.01%. For the molecule `C#CCNC(=O)C1=C[C@H](c2ccc(C(F)(F)F)cc2)C[C@H](OCCCCO)O1`, the “hERG current change (%, negative = inhibition) at 10uM” value is -6.12%. The figure for `N#CCCCSc1nnnn1-c1cccc(Cl)c1` is -22.2%.

As to `Cc1ccc(OCc2ccccc2Br)c([N+](=O)[O-])n1`, the “hERG current change (%, negative = inhibition) at 10uM” value stood at 16.7%. The figure for `Cn1c(=O)cc(N2CCc3ccccc32)[nH]c1=O` is 14.4%; for `CCC(=Nc1ccccc1O)C1=C(O)CC(c2ccccc2)CC1=O` (centres unmarked) it is -1.38%. The figure for `O=C(NCCC1=CCCCC1)c1ccc(-n2cncn2)c([N+](=O)[O-])c1` is -22.5%; for `Fc1ccc(NC(=S)NCc2ccc3c(c2)OCO3)cc1` it is 5.52%; for `Cc1ccccc1N1C(=O)C2C3C=CC(C2C1=O)N(C)C3=O` (centres unmarked) it is 2.4%.
